# Experimental data reported in PubChem BioAssay AID463173 (ICCB-Longwood Screening Facility, Harvard Medical School, 2010).
# The whole screen tested about 52,000 compounds, of which about 1,700 (3.3%) were called active. No stated cut-off is given here; in the data, active means survival mostly below about 52% (no sharp cut-off); inactive means mostly above about 56%. This is one part of the list.
# Test system: Wild type
# Assay: growth inhibition of S. aureus wild type versus tarO mutant, primary screen, teichoic acid synthesis inhibitors, RN4220, OD600 (AID 463173)
# Settings: S. aureus RN4220 wild type/DeltatarO growth, OD600, 18 h, hits give low values, screened at 18.75 µg/mL (by protocol)
row,SMILES,survival
1,CCOc1ccc(-c2nc3c(C#N)c[nH]n3c2NC2CCCCC2)cc1,inactive: 65%
2,CCOc1ccc2nc(NCCNC(=O)Nc3ccc(SC)cc3)c(C#N)cc2c1,inactive: 106%
3,CCc1ccc(CNC(=O)C2CCCN(c3nn4cc(-c5ccc(F)cc5)nc4s3)C2)cc1 (configuration not stated),inactive: 83%
4,CCOC(=O)c1ccccc1NC(=O)N1CCCN(S(=O)(=O)c2ccc3c(ccn3CC)c2)CC1,inactive: 65%
5,Cc1cccc(-c2nc(CCNC(=O)c3ccccc3Br)cs2)c1,inactive: 133%
6,CCCC(=O)Nc1cc(C(=O)NCc2ccc(OC)cc2)ccc1S(=O)(=O)c1ccc(Cl)cc1,inactive: 69%
7,Cc1nn(CC(=O)NCc2ccccc2Cl)c(=O)c2cccn12,inactive: 86%
8,CCOC(=O)C1CCN(C(=O)C2CCN(c3nnc(C)c4c(C)n(-c5ccccc5)nc34)CC2)CC1,inactive: 136%
9,COc1ccc(-c2cc(OC(=O)c3ccc(F)cc3)c3c(C)oc(C)c3c(=O)c2)cc1OC,inactive: 85%
10,COc1ccc(NC(=O)C2CCCN(S(=O)(=O)c3c(C)n[nH]c3C)C2)cc1OC (configuration not stated),inactive: 118%
11,COc1ccc(-c2noc(CSc3nnc(-c4ccccc4)n3-c3ccc(F)cc3)n2)c(OC)c1,inactive: 103%
12,Cc1ccc(Cc2c(C)nn(-c3nc(C)c(C(=O)N4CCCCC4C)s3)c2C)cc1 (configuration not stated),inactive: 76%
13,O=C(Nc1ccc(N2CCCCC2)cc1)c1cccs1,inactive: 125%
14,CCc1nn(CC(=O)NCc2ccc(OC)cc2OC)c(=O)c2cc3c(OC)cccc3n12,inactive: 85%
15,Cc1cccc(NC(=O)CN2c3ccccc3S(=O)(=O)c3ccccc32)c1C,active: -3%
16,CCC(=O)N1CCc2cc(S(=O)(=O)NC(C(=O)NCCc3ccc(Cl)cc3)C(C)C)ccc21 (configuration not stated),inactive: 79%
17,CC(C)(C)c1ccc(CSc2nnc(-c3ccco3)n2-c2ccccc2)cc1,inactive: 109%
18,COc1ccc(NC(=O)C2CCCN(S(=O)(=O)c3ccc(Cl)cc3)C2)cc1 (configuration not stated),inactive: 84%
19,Cc1ccc(C)c(N2CCN(c3nccn4nc(-c5ccc(Br)cc5)cc34)CC2)c1,inactive: 168%
20,Cc1ccc(Cl)cc1NC(=O)C(NS(=O)(=O)c1cccc2nsnc12)c1ccccc1 (configuration not stated),inactive: 72%
21,COc1cc(C2c3c(oc4ccccc4c3=O)C(=O)N2c2nc(C)c(C)s2)ccc1O (configuration not stated),inactive: 69%
22,Cc1nc2nc(NC(=O)c3ccc(F)cc3)[nH]n2c(=O)c1Cc1ccccc1,inactive: 88%

row,SMILES,survival
1,O=C1C=C(NCc2ccc(Cl)cc2)CC(c2ccco2)C1 (configuration not stated),inactive: 107%
2,O=C(COCc1cc(-c2cccs2)on1)NCc1ccccc1Cl,inactive: 88%
3,Cn1c(=O)oc2cc(S(=O)(=O)CCC(=O)NCCc3ccccc3)ccc21,inactive: 72%
4,CCCOC(=O)c1ccc2c(c1)C(=O)N(c1ccccc1)C2=O,inactive: 106%
5,Cc1ccccc1NC(=O)Nc1ccc2nc(N3CCN(C)CC3)cc(C)c2c1,inactive: 75%
6,CC(=O)c1cc(-c2ccc(F)cc2)n(CC(=O)NC(C)c2ccccc2)c1C (configuration not stated),inactive: 71%
7,Cc1cccn2c(=O)c(/C=C(\C#N)c3nc4ccccc4s3)c(Oc3ccc(Br)cc3)nc12,inactive: 129%
8,O=C(NCc1ccccc1F)C1CCN(Cc2cc3ccccc3n2Cc2cccc(Cl)c2)CC1,inactive: 70%
9,Cc1c(C(=O)OC2CCCCC2)[nH]c2c1C(=O)CC(c1ccccc1Cl)C2 (configuration not stated),inactive: 97%
10,Cc1cc(C)n(-c2nnc(Nc3ccc(C(C)C)cc3)c3ccccc23)n1,inactive: 74%
11,CC(=O)c1ccc(NC(=O)C2=CC(c3cccs3)=NS(=O)(=O)N2C)cc1,inactive: 89%
12,COc1ccc(CNCc2ccc3c(c2)n(C)c(=O)n3C)cc1,inactive: 90%
13,COc1cccc(C(=O)NC(=O)Nc2ccc(-n3nc(C(F)(F)F)cc3C(F)(F)F)cc2)c1,inactive: 87%
14,Cc1ccc2nc(-c3ccc(NC(=O)C(F)(F)F)cc3)sc2c1,inactive: 130%
15,COc1cc(Nc2nc(SCc3cccc(Cl)c3)nc3ccccc23)cc(OC)c1,inactive: 32%
16,Cc1nc2c(c(C)nn2-c2ccccc2)c(C)c1CCC(=O)Nc1ccc(F)cc1,inactive: 88%
17,Fc1ccc(Nc2c3c(nc4nncn24)CCC3)cc1,inactive: 82%
18,CCN(c1ccccc1)S(=O)(=O)c1ccc(NC(=O)c2cc(=O)c3ccc(C)c(C)c3o2)cc1,inactive: 86%
19,Cc1ccc2c(CC(=O)Nc3c(C(=O)c4ccc(F)cc4)oc4ccccc34)coc2c1,inactive: 82%
20,COc1ccc(-c2nc3c(c(SCc4cc(C)ccc4C)n2)Cc2c(CO)cnc(C)c2O3)cc1,inactive: 85%
21,COc1ccc(N2CCN(C(=O)c3nn(C)c4c3CS(=O)(=O)c3ccccc3-4)CC2)cc1,inactive: 85%
22,Cc1[nH]c(=O)[nH]c(=O)c1Oc1ccccc1,inactive: 109%

row,SMILES,survival
1,CCC(=O)OCc1cnc(C)c2oc(=O)c(C(=O)Nc3ccc(CC)cc3)cc12,inactive: 134%
2,CC(NC(=O)C1CCN(C(=O)N2CCOc3ccc(Cl)cc32)CC1)c1ccccc1 (configuration not stated),inactive: 80%
3,O=C(CCSCc1ccc(Cl)cc1)N1CCN(c2ccccc2F)CC1,inactive: 90%
4,COc1ccc(CCNC(=O)CS(=O)Cc2nc(-c3ccc(C)cc3)oc2C)cc1OC (configuration not stated),inactive: 78%
5,NC(=O)c1cc(S(=O)(=O)NCc2ccc(Br)cc2)cs1,inactive: 73%
6,CN1C(=O)N(C)C2(CC1(C)C)CC(C)(C)N(C)C(=O)N2C,inactive: 102%
7,CCCN1C(=O)c2ccccc2NC1c1cc(OC)c(OC)c(OC)c1 (configuration not stated),inactive: 101%
8,COc1ccccc1Nc1nn2c(=O)c3ccc(C(=O)Nc4ccc(F)cc4)cc3nc2s1,inactive: 88%
9,CC(=O)N1c2ccccc2NC(=O)C1CC(=O)Nc1cccc(C)c1 (configuration not stated),inactive: 114%
10,CCCN(CCC)CCNC(=O)Cn1ncc2c([nH]c3ccc(C)cc32)c1=O,inactive: 76%
11,CCOc1ccc2oc(=O)cc(CN3CCN(C(=O)c4cccc(F)c4)CC3)c2c1,inactive: 56%
12,CCc1cccc(-n2c(=O)c3cccnc3n2CC(=O)NCc2ccccc2Cl)c1,inactive: 66%
13,CCOC(=O)c1[nH]c(C)c(CCC(=O)NCc2ccc(C)cc2)c1C,inactive: 70%
14,CCOC(=O)c1ccc(NC(=O)CCc2c(C)n(CC)c3cc(-c4ccccc4OC)nn3c2=O)cc1,inactive: 75%
15,CCOCCCNC(=O)c1cc2c(=O)n3ccccc3nc2s1,inactive: 79%
16,COc1ccc(N2CCN(C(=O)c3ccc(NC(=O)c4nsc5ccccc45)cc3)CC2)cc1,inactive: 56%
17,O=C(/C=C\c1ccc2c(c1)OCO2)NC1CC(=O)N(c2ccc(F)cc2)C1 (configuration not stated),inactive: 69%
18,Cc1ccc(C)c(N2CCN(C(=O)c3cc4cc5ccc(C)cc5nc4s3)CC2)c1,inactive: 92%
19,CC(C)(C)c1ccc(C(=O)Nc2cc(-c3ccccc3)nn2-c2ccccc2)cc1,inactive: 68%
20,CC1CCN(S(=O)(=O)c2cc(C(=O)NCCc3ccccc3)n(C)c2)CC1,inactive: 113%
21,Cc1ccc(CNc2nc3c(S(=O)(=O)c4ccc(C)c(C)c4)nnn3c3ccc(Cl)cc23)cc1,inactive: 86%
22,COc1cc(-c2nc3cc(Cl)ccc3o2)cc(OC)c1OC,inactive: 109%

row,SMILES,survival
1,Cc1ccc(CNC(=O)CCn2ccc3cc(S(=O)(=O)N4CCCC4)ccc32)cc1,inactive: 74%
2,O=C(CN1CCN(c2ccc(Cl)cc2)CC1)Nc1ccc(Cl)c(C(F)(F)F)c1,inactive: 87%
3,Cc1ccc(CSc2oc(-c3ccco3)nc2S(=O)(=O)c2ccc(Br)cc2)cc1,inactive: 76%
4,O=C(O)C1CC=CCC1C(=O)N(Cc1ccccc1)c1ccccc1 (configuration not stated),inactive: 104%
5,CC1CCN(C(=O)CSc2nc3c([nH]c4ccccc43)c(=O)n2-c2ccccc2)CC1,inactive: 83%
6,COc1ccccc1NC(=O)CSc1nnc(-c2nonc2NC(C)=O)n1-c1ccccc1,inactive: 84%
7,CCOc1ccc(-n2c(=O)c3c4c(sc3n(Cc3cc(=O)n5cc(Cl)ccc5n3)c2=O)CCC4)cc1,inactive: 83%
8,CCc1ccc(NC(=O)Cn2c(=O)n(Cc3nc(C)no3)c(=O)c3cc4c(cc32)OCO4)cc1,inactive: 105%
9,CN1CCN(C(=O)c2ccc(C(C)(C)C)cc2)CC1,inactive: 108%
10,Cc1ccc(CN2CCC(CNC(=O)c3cnn(-c4ccccc4)c3C3CCN(C(=O)OC(C)(C)C)CC3)CC2)cc1,inactive: 73%
11,CCc1cc(C(=O)OC)c(NC(=O)CC2SC(=NC)N(C)C2=O)s1 (configuration not stated),inactive: 110%
12,COCCn1c(=O)[nH]c2cc(C(=O)N3CCN(c4ccc(Cl)cc4)CC3)ccc2c1=O,inactive: 66%
13,Cc1ccc2nc(NC(=O)c3nc(SCc4ccccc4F)ncc3Cl)sc2c1,inactive: 85%
14,Cc1ccc2c(c1)C(=O)C(=O)N2Cc1ccc(OCCC(C)C)cc1,inactive: 79%
15,COc1ccc(NC(=O)c2oc3ccc(S(=O)(=O)N4CCCCC4)cc3c2C)cc1Cl,inactive: 73%
16,COc1ccc(NC(=O)c2cc(C(C)=O)n3ccccc23)cc1,inactive: 77%
17,COc1cc2c(=O)n(Cc3ccco3)c(=O)n(CC(=O)Nc3ccc(F)cc3)c2cc1OC,inactive: 68%
18,CCOc1cc2[nH]c(=O)n(Cc3ccc(C(=O)N4CCN(c5ccccc5)CC4)cc3)c(=O)c2cc1OCC,inactive: 120%
19,Cc1cnc(NC(=O)CSc2nc3sc4c(c3c(=O)n2C)CCCC4)s1,inactive: 114%
20,CSc1ncc(Cl)c(C(=O)Nc2cc(C(F)(F)F)ccc2Cl)n1,inactive: 88%
21,O=C(O)c1ccc(NCc2nc3ccccc3n2CCOc2ccccc2Cl)cc1,inactive: 88%
